Data from publication PMC4336329 (PLoS ONE, 2015).
Among all 310,000 compounds or so, about 2,200 (0.71%) showed an effect of 50% or more. Effects have a minus sign here. This is one part of the list.

The compounds below were run against human ether-à-go-go-related gene (hERG) potassium channel (human, UniProt Q12809) (assay: primary screen, population patch clamp on CHO cells stably expressing hERG).
human ether-à-go-go-related gene (hERG) potassium channel, sequence (Q12809 whole entry, looked up): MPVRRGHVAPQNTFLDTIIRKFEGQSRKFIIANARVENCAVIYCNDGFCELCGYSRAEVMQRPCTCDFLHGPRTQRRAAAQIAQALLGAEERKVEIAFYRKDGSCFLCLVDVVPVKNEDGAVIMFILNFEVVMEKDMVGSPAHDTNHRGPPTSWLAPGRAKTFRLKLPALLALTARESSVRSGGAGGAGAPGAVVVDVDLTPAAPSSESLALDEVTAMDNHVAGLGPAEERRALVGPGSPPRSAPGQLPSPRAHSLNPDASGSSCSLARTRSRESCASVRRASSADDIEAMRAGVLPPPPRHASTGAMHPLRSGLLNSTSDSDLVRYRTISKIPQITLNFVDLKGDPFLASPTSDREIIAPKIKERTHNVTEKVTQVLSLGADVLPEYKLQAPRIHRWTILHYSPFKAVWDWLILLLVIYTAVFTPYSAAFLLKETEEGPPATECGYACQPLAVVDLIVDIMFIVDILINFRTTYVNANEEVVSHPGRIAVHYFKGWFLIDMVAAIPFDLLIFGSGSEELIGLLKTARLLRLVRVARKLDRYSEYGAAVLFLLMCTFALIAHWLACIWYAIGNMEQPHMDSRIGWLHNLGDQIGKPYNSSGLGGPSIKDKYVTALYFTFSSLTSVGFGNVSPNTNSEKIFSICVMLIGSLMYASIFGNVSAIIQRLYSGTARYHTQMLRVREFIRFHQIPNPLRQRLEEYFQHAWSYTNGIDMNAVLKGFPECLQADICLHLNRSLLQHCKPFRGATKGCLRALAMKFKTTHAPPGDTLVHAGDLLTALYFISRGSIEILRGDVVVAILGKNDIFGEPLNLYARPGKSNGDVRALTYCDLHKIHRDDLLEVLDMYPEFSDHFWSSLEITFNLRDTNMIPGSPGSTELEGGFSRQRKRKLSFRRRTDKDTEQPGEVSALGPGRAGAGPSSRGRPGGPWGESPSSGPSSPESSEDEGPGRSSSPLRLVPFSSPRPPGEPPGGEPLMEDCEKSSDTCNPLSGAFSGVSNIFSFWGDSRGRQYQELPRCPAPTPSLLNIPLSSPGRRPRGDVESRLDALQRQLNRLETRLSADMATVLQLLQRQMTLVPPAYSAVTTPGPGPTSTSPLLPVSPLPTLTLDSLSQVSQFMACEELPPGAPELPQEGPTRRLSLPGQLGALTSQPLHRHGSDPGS
For Cc1cccc(NC(=O)C2CC3CCC2C3)c1C (stereo not shown), the “hERG current change (%, negative = inhibition) at 1uM” value was 11.7%. Cc1ccc(NC(=O)c2ccc(=O)[nH]n2)cc1S(=O)(=O)Nc1ccccc1Cl was tested, and the “hERG current change (%, negative = inhibition) at 1uM” value was 13.8%. In the case of O=C1COc2ccc(C(=O)CSc3nnc(Cc4ccccc4)o3)cc2N1, the “hERG current change (%, negative = inhibition) at 1uM” value is reported as 12.3%. O=C(Sc1ccc(Cl)cc1)c1cccc(Cn2cc(C(F)(F)F)ccc2=O)c1 was tested, and the “hERG current change (%, negative = inhibition) at 1uM” value was 8.69%. For Cc1c(NC(=O)CSc2ccc3ccccc3n2)c(=O)n(-c2ccccc2)n1C, the “hERG current change (%, negative = inhibition) at 1uM” value was 2.24%. In the case of CCOC(=O)N1CCN(S(=O)(=O)c2cc([N+](=O)[O-])ccc2C)CC1, the “hERG current change (%, negative = inhibition) at 1uM” value is reported as 7.31%. In the case of Cc1ccc(Cc2cnc(NC(=O)/C(C#N)=C/c3ccc(-c4cccc([N+](=O)[O-])c4)o3)s2)cc1, the “hERG current change (%, negative = inhibition) at 1uM” value is reported as 8.41%. In the case of CCOc1ccc(/C=N/NC(=O)CN2CCCCCCC2)cc1, the “hERG current change (%, negative = inhibition) at 1uM” value is reported as -15.7%. For Cc1cccc(C(=O)N2CCNC(=O)C2CC(=O)Nc2cccc(Cl)c2)c1 (stereo not shown), the “hERG current change (%, negative = inhibition) at 1uM” value was 10.2%. In the case of C/C=C/c1ccc(OCCN2CCc3ccccc3C2)c(OC)c1, the “hERG current change (%, negative = inhibition) at 1uM” value is reported as -20.8%. Cc1ccc(NC(=O)CN(C)C(=O)c2cccc(S(=O)(=O)NCc3ccccc3)c2)cc1 was tested, and the “hERG current change (%, negative = inhibition) at 1uM” value was -7.69%. O=C(NCCC1CCCCN1S(=O)(=O)c1ccc(F)cc1)C(=O)Nc1ccccc1 (stereo not shown) was tested, and the “hERG current change (%, negative = inhibition) at 1uM” value was 7.03%. In the case of COC(=O)c1ccc(COC(=O)C2CCN(S(=O)(=O)c3ccc(C)c(C)c3)CC2)o1, the “hERG current change (%, negative = inhibition) at 1uM” value is reported as 19.6%. With O=C(NCC1CCCN1S(=O)(=O)c1ccccc1)c1cccc(Cl)c1 (stereo not shown) the “hERG current change (%, negative = inhibition) at 1uM” value was -6.54%. O=c1[nH]nc(-c2ccc(NCCO)c([N+](=O)[O-])c2)c2ccccc12 was tested, and the “hERG current change (%, negative = inhibition) at 1uM” value was 19%. For CC(C)=CCOc1ccc([C@@H]2COc3c(ccc4c3C=CC(C)(C)O4)C2)c(O)c1, the “hERG current change (%, negative = inhibition) at 1uM” value was 14.9%. For Cc1nc(-c2ccc(-n3nncc3-c3ccco3)cc2)cs1, the “hERG current change (%, negative = inhibition) at 1uM” value was 7.29%. With COc1ccc(C23CC4CC(CC(C(=O)O)(C4)C2)C3)c(F)c1 the “hERG current change (%, negative = inhibition) at 1uM” value was 12.1%. With O=C(CNc1ccc2ccccc2c1)N/N=C/c1ccc([N+](=O)[O-])o1 the “hERG current change (%, negative = inhibition) at 1uM” value was 5.59%. In the case of CCC(=O)Nc1c2c(nn1-c1ccc(OC)cc1)CS(=O)C2 (stereo not shown), the “hERG current change (%, negative = inhibition) at 1uM” value is reported as 11%. In the case of CCOC(=O)Cc1cnc(NC(=O)CSc2nc(N)cc(N)n2)s1, the “hERG current change (%, negative = inhibition) at 1uM” value is reported as 5.09%. NC(=O)CN1C(=O)C(=O)N(Cc2ccc(Cl)cc2)C1=O was tested, and the “hERG current change (%, negative = inhibition) at 1uM” value was 11.6%. For COc1ccc(N/N=C(C)/C(=N/O)C(=O)Nc2ccccc2)cc1, the “hERG current change (%, negative = inhibition) at 1uM” value was 5.2%. For Cc1ccc(NC(=S)N2CCn3cccc3C2c2cccnc2)cc1 (stereo not shown), the “hERG current change (%, negative = inhibition) at 1uM” value was -2.45%. With COc1ccccc1NC(=O)c1ccc(CS(=O)(=O)c2ccc(C)cc2)cc1 the “hERG current change (%, negative = inhibition) at 1uM” value was 0.759%. For CN(C)CCN1C(=O)C2C3C=CC(C3)C2C1=O (stereo not shown), the “hERG current change (%, negative = inhibition) at 1uM” value was 15.4%. In the case of Cc1ccc(NC2=NC(c3ccc(F)cc3)n3c(nc(C)cc3=O)N2)c(C)c1 (stereo not shown), the “hERG current change (%, negative = inhibition) at 1uM” value is reported as 15.2%. For COc1ccc(C(=O)c2sc3nc(-c4ccc(OC)cc4)ccc3c2N)cc1, the “hERG current change (%, negative = inhibition) at 1uM” value was 8.98%. In the case of O=C(CCc1nnc2ccc(N3CCCCC3)nn12)NCC1CCN(Cc2ccc(F)cc2)CC1, the “hERG current change (%, negative = inhibition) at 1uM” value is reported as 14.3%. For CCOc1ccc(C(=O)Nc2c3c(nn2-c2ccc(F)cc2)CS(=O)C3)cc1 (stereo not shown), the “hERG current change (%, negative = inhibition) at 1uM” value was 5.83%. With CCc1ccc(NC(=O)NNC(=O)CCc2ccccc2)cc1 the “hERG current change (%, negative = inhibition) at 1uM” value was 11.4%. In the case of Cc1[nH]nc2nc(SCC(=O)NCCC3=CCCCC3)n(-c3ccc(Br)cc3)c(=N)c12, the “hERG current change (%, negative = inhibition) at 1uM” value is reported as 3.07%. In the case of CSc1nnc([C@@H](N)Cc2c[nH]c3ccccc23)o1.Cl, the “hERG current change (%, negative = inhibition) at 1uM” value is reported as 9.48%. With CC(C)(C)NC(=O)COC(=O)c1nsc(Cl)c1Cl the “hERG current change (%, negative = inhibition) at 1uM” value was 13.2%. With Cc1nc2ncnn2c(N2CCN(C(c3ccccc3)c3ccccc3)CC2)c1C the “hERG current change (%, negative = inhibition) at 1uM” value was -10.9%. In the case of COc1ccc(C2Nc3ccccc3C(=O)N2Cc2ccccc2)cc1COc1ccccn1 (stereo not shown), the “hERG current change (%, negative = inhibition) at 1uM” value is reported as -7.32%. For CCOc1ccc(C(c2c(C)[nH][nH]c2=O)c2c(C)[nH][nH]c2=O)cc1OC, the “hERG current change (%, negative = inhibition) at 1uM” value was 6.76%. For CC(=O)c1ccc(-n2ccnc2)cc1, the “hERG current change (%, negative = inhibition) at 1uM” value was 7.14%. CCN(CC)S(=O)(=O)c1cc(-c2nnc(-c3ccc(Br)cc3)o2)ccc1Br was tested, and the “hERG current change (%, negative = inhibition) at 1uM” value was 13.7%. With Cc1ccccc1-n1c(C)cc(/C=C(\C#N)C(=O)NCC2CCCO2)c1C (stereo not shown) the “hERG current change (%, negative = inhibition) at 1uM” value was 5.1%. Nc1cc(=O)[nH]c(SC/C=C/c2ccccc2)n1 was tested, and the “hERG current change (%, negative = inhibition) at 1uM” value was 9.32%. With Cc1ccc(C(=O)OCC(=O)N2CCC(c3ccccc3)=N2)c(C)c1 the “hERG current change (%, negative = inhibition) at 1uM” value was 7.04%. NC(=S)NNC(=O)[C@@H]1CCCC[C@@H]1C(=O)O was tested, and the “hERG current change (%, negative = inhibition) at 1uM” value was 26.8%.
